Test results reported in the supplement of paper PMC11417369.
This is one part of the list.

These sequences were tested on PfSIP2 AP2 domain 1 (GST-tagged) (assay: gcPBM binding intensity (ln(normalized median fluorescence intensity)); higher = stronger DNA binding).
Procedure, shortened: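 Alexa488 anti-GST antibody, scanned at 488 nm, detected GST-tagged P. falciparum DNA-binding domains that had been expressed in E. coli and incubated for 1 h on an Agilent 4 × 180k array. The array carried primer-extended double-stranded 36-bp intergenic genomic probes and negative controls. Binding intensity is the highest Masliner-normalised natural-log median intensity across replicate spots of either orientation of each probe.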

“TTTCTTCTTCTATTGTGTACGTAAAAAAAAAAAAAA [XGTACX_site772]” was tested. Which “gcPBM binding intensity (ln)” value did it give?
Its value is 7.73.

For “GGTAATTTCCTTTTTTGTACTCATAGAAGGATAATA [XGTACX_site89]”, which “gcPBM binding intensity (ln)” value is on record?
Its value is 7.18.

How did the “gcPBM binding intensity (ln)” value turn out when “ACTGTAAAAGGATTTACACACATATTTACATTTACA [CACACA_site519]” was run?
Its value is 7.

How did the “gcPBM binding intensity (ln)” value turn out when TACCAATGCATAACGGTGCAAAAAAATAAGGAATAA was run?
The value was 10.7.

“ATGCATATAACTACGTGTACAAATATACACAAATAC [XGTACX_site8811]” was tested. Which “gcPBM binding intensity (ln)” value did it give?
Its value is 7.22.

“ACCCATAAAAAGGATACACACACACCCACCCATATA [CACACA_site8205]” was tested. Which “gcPBM binding intensity (ln)” value did it give?
Its value is 6.97.

With “ATATATATATTTGTATGTACATATATATATTCGTAT [XGTACX_site1640]” as the sequence, how does the “gcPBM binding intensity (ln)” value read?
Its value is 8.34.

For “TTTCCTTATTAAAACACACAAATACATTATTTAATC [CACACA_site7080]”, which “gcPBM binding intensity (ln)” value is on record?
Its value is 7.06.

With “ACATTTTTTTCATATCGTACATATTATAATATTTTC [XGTACX_site6524]” as the sequence, how does the “gcPBM binding intensity (ln)” value read?
Its value is 7.65.

With “AAAAAAAAAAAAGGAGGTACACAATTTTATATATGC [XGTACX_site5296]” as the sequence, how does the “gcPBM binding intensity (ln)” value read?
Its value is 6.97.

Which “gcPBM binding intensity (ln)” value does the source give for “ACAAGTCAGGCAAAAACATGCATTATTTGAACATTA [TGCATGCA_site864]” here?
The value was 6.91.

For “GAGCATTACCCATATACACACATATATATAAACCTA [CACACA_site2737]”, which “gcPBM binding intensity (ln)” value is on record?
The value was 7.36.

Which “gcPBM binding intensity (ln)” value does the source give for “GTACGATAAAAAATTGGACAAAAAAAAAAAAAAAAT [XGTACX_negctrl_site158]” here?
The value was 7.03.

For “ATTTCATAAATTAAACGTACATAATACACACACATG [XGTACX_site4155]”, which “gcPBM binding intensity (ln)” value is on record?
The value was 7.34.

Which “gcPBM binding intensity (ln)” value does the source give for “TAAAACAACAAAGAAAATGAAAAAGTAAAAACATAT [CACACA_negctrl_site1049]” here?
Its value is 6.99.

TTTTGTTATTTTTTAGTGCATATAAAGGTTGTTAAG was tested. Which “gcPBM binding intensity (ln)” value did it give?
The value was 8.64.

How did the “gcPBM binding intensity (ln)” value turn out when “TTTTGCAATAATGTTGCACACTAAATAGTCATCTAT [CACACA_site4304]” was run?
Its value is 7.34.

Which “gcPBM binding intensity (ln)” value does the source give for “AAAAACTAATCTTTAACATGCAACCGTTTATACATA [TGCATGCA_site363]” here?
Its value is 7.32.

“TGAGTTACATACTAATGTACACAACAAAAAAAAAAA [XGTACX_site2390]” was tested. Which “gcPBM binding intensity (ln)” value did it give?
Its value is 6.99.

How did the “gcPBM binding intensity (ln)” value turn out when “TTTTTTTGAACATATACACACTCTAAACTTATACAT [CACACA_site3917]” was run?
Its value is 6.86.

With “AAAGGTTTATATGATACACACATAAGTGATCAGGTT [CACACA_site190]” as the sequence, how does the “gcPBM binding intensity (ln)” value read?
The value was 6.75.

How did the “gcPBM binding intensity (ln)” value turn out when “TAATTTATGACACGCGCACACATATATATATAGTAA [CACACA_site4249]” was run?
Its value is 7.24.

With “AAAAATTATGGACACACACACATATATATATATATT [CACACA_site4717]” as the sequence, how does the “gcPBM binding intensity (ln)” value read?
Its value is 7.22.

For “GGTATACGCAAGTATACACACATATATATATATATA [CACACA_site3240]”, which “gcPBM binding intensity (ln)” value is on record?
The value was 9.21.

“AATAAAATAAAATACACACATACATACATACAAATG [CACACA_site2438]” was tested. Which “gcPBM binding intensity (ln)” value did it give?
Its value is 7.06.
